Hit rate of the full screen: of about 48,000 compounds, about 450 (0.94%) were called active. Roughly 19% stayed inconclusive and do not appear here. Calls come from the whole dose curve; as a rule, active = well fitted inhibition curve with a large enough effect; inconclusive = small, poorly fitted or top-dose-only effect; inactive = no such curve, though single readings can be large or run the other way. This is one part of the list.
Test: Primary qHTS for Identification of Small Molecule Inhibitors of Huntingtin Promoter Activity; note: nearly all actives have a fitted effect of over 50% in size
Details: HEK293 HTT promoter firefly luciferase reporter (activity 0% = vehicle and -100% = no light), 24 h; series mostly up to 57.5 µM; activity change, negative = inhibition: at the top concentration
How it was run: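 Quantitative HTS used concentration series of up to 57.5 uM final on HEK293 luciferase reporter cells, 24 h at 37 degrees C. Readout was Dual-Glo firefly luminescence.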

Activity change, negative = inhibition, inactive:
O=C(OCCN1CCOCC1)c1cccnc1Nc1cccc(C(F)(F)F)c1 -2.84%
COc1ccc(Cl)cc1NC(=O)c1cc(S(=O)(=O)N2CCc3ccccc32)cn1C -11.4%
Cc1cccc(-n2c(=O)c3ccccc3n(Cc3ccccc3C#N)c2=O)c1 -25.4%
COc1cc2c(C(=O)N3CCN(c4cccc(C)c4)C(C)C3)cn(CC(C)C)c(=O)c2cc1OC (stereo unspecified) -18.1%
Cc1nn(CCC(=O)NC(C)C)c(=O)c2nn(-c3ccccc3)c(C)c12 12.4%
O=C(CSc1nc2c([nH]c3ccccc32)c(=O)n1-c1cccc(Cl)c1)N1CCc2ccccc21 -15.9%
Cc1ccc2nc(NCc3ccccc3Cl)c3nnnn3c2c1 -5.38%
CC(C)(C)c1ccc(C(=O)CCCCl)cc1 24.7%
COc1cccc(C(=O)CN2CCN(S(=O)(=O)c3ccc(Cl)cc3)CC2)c1 -4.4%
Cc1nc(N)sc1-c1ccnc(Nc2ccc(N3CCOCC3)cc2)n1 -25.7%
COc1cc2ccccc2cc1C(=O)Nc1ccc2oc(-c3cc(Br)ccc3Cl)nc2c1 -9.83%
O=C(CN1C(=O)CSc2ccc(S(=O)(=O)N3CCCCC3)cc21)NCc1ccc(F)cc1Cl -28.5%
COc1cc(NC(=O)CCc2c(C)n(C)c3cc(-c4ccccc4C)nn3c2=O)cc(OC)c1OC 1.01%
CCOc1ccccc1NC(=O)c1sc2nc3c(cc2c1N)CN(Cc1ccccc1)CC3 -2.15%
CCc1cccc2c3c([nH]c12)C(CC)(CC(=O)O)OCC3 (stereo unspecified)
CCc1ccc(C2C(C(=O)Nc3ccccc3)=C(C)Nc3nc(SCC(=O)c4ccc(C)cc4)nn32)cc1 (stereo unspecified) 2.51%
CC(=O)c1ccc(NC(=O)Cn2c3ncccc3c(=O)n2-c2ccc(C)cc2)cc1 -24.6%
COc1ccc(NC(=O)c2cnc(SCC(=O)Nc3nc4ccc(C)cc4s3)n(C)c2=O)cc1 19.1%
Cc1ccc(-c2noc(CSc3nnc(-c4ccc(Cl)cc4)n3C)n2)cc1 -27.1%
Cc1cccc(C(=O)NCC(c2ccc3c(c2)OCO3)N2CCOCC2)c1 (stereo unspecified) -22.9%
O=C(c1ccco1)c1cn(CCOc2ccc(Cl)cc2)c2ccccc12 6.73%
Cc1noc(NS(=O)(=O)c2ccc(N)cc2)c1C
COc1ccc(C(CNC(=O)c2ccc(C)cc2)N2CCOCC2)cc1 (stereo unspecified) -5.61%
CCC(=O)N1CCc2cc(CNC(=O)Nc3ccc(OC)cc3OC)ccc21 -22%
COc1ccccc1-c1cc(C(F)(F)F)nc(S(=O)(=O)CCCC(=O)Nc2cc(Br)ccc2O)n1 30.6%
O=C(CSc1nccn1Cc1ccccc1)NC1CCCC1 7.31%
CCCCC(=O)O[C@]1(C(=O)CO)CC[C@H]2[C@@H]3CCC4=CC(=O)CC[C@]4(C)[C@H]3[C@@H](O)C[C@@]21C -8.06%
CN(C)c1ccc(C(CNS(=O)(=O)c2cc(F)ccc2F)N2CCOCC2)cc1 (stereo unspecified) 1.52%
O=C(CSCc1ccc(F)cc1)N1CCN(c2ccccc2)CC1 -0.284%
Cc1cc(C)c(Cn2c(=O)n(CCCCCC(=O)NCc3ccc4c(c3)OCO4)c(=O)c3sccc32)c(C)c1 -0.98%
COc1cccc(NC(=O)Cn2c(=O)n(-c3cccc(OC)c3)c(=O)c3c4c(sc32)CCCC4)c1 0.238%
Cc1ccc(CN(C(=O)c2ccccc2Br)C2CCS(=O)(=O)C2)o1 (stereo unspecified) -6.01%
O=C(Nc1ccc2oc(-c3ccc4ccccc4c3)nc2c1)c1cc(Br)ccc1Cl 15.8%
CC1CCC(NC(=O)c2ccc3c(c2)N(Cc2cccc(Cl)c2)C(=O)c2ccccc2S3=O)CC1 (stereo unspecified) 4.05%
Cn1c(=O)c2c(SCC(=O)NCc3ccco3)nc(-c3ccccc3F)nc2n(C)c1=O -4.62%
CCOc1ccccc1NC(=O)COc1cccc2c(=O)n(CCOC)ccc12 0%
O=C(CCCc1nc(-c2ccco2)no1)Nc1ccccc1[N+](=O)[O-] -7.53%
COc1cccc(-n2c(=O)c3c4c(sc3n(Cc3ccc(F)cc3Cl)c2=O)CCCC4)c1 19.5%
CCC1CCCCN1S(=O)(=O)c1ccc(N2CCCCS2(=O)=O)cc1 (stereo unspecified) -28.9%
COc1ccc(-c2[nH]ncc2C(=O)NCc2cccc(F)c2)cc1 -28.3%
COc1ccc(C2=NN(C(C)=O)C(c3cn(-c4ccccc4)nc3-c3cccs3)C2)cc1 (stereo unspecified) -26.3%
CCOC(=O)c1ccc(NC(=O)c2c(C)oc3nc(C)nc(N4CCCC4)c23)cc1 -3%
Cc1ccc(-n2nc(-c3ccc(F)cc3)c3cnc4cc5c(cc4c32)OCO5)cc1C -13.4%
COCCNC(=O)c1ccc2nc(CCc3ccccc3)oc2c1 23.8%
CCc1ccc(NC(=O)CC(c2ccc(C)cc2)N2Cc3ccccc3C2=O)cc1 (stereo unspecified) -10.1%
Cc1ccc(Cl)cc1N1CCN(C(=O)CCSCc2ccccc2F)CC1 -22.6%
Cc1c(C(=O)Nc2ccc(Br)cc2F)oc2ccc(S(=O)(=O)N3CCC4(CC3)OCCO4)cc12 -15.4%
Cc1cc(OCC(=O)NC(Cc2c[nH]c3ccccc23)C(=O)O)ccc1Cl (stereo unspecified) -4.87%
Cc1oc2ncn(C)c(=O)c2c1C(=O)Nc1ccc(F)cc1 -10.5%
CCc1nn(CC(=O)NCCc2ccc(Cl)cc2)c(=O)c2cc3ccccc3n12 7.7%
Cc1cc(N2CCN(c3ccc(F)cc3)CC2)n2nc(-c3ccc(Cl)cc3)nc2n1 -14.3%
CCOc1ccc2nc(N(Cc3cccnc3)C(=O)C3CCCCC3)sc2c1 -29.3%
Cc1ccc(C2CCN(C(=O)Nc3ccc(Cl)c(Cl)c3)C2)cc1 (stereo unspecified) 15.2%
Cc1ccc(-c2nnc(Nc3ccccc3)c3ccccc23)cc1S(=O)(=O)N1CCOCC1 -9.05% [at 11.5 µM]
Cc1ccc(CNC(=O)c2ccc3c(c2)N(Cc2ccccc2Cl)C(=O)CS3)cc1 -22.7%
Cc1cccc(N2CCN(C(=O)c3oc(=O)c4ccccc4c3-c3ccccc3)CC2C)c1 (stereo unspecified) -12.4%
COc1ccc(Cn2c(CCC(=O)Nc3ccc(C)cc3C)nc3cccnc32)cc1 -22%
O=C1CC2(CCCC2)CC(=O)N1CCNCC1COc2ccccc2O1 (stereo unspecified) 4.44%
COc1cccc(CNC(=O)c2cccc(-n3c(C)nc4cccnc43)c2C)c1 -26.4%
Cc1cccc(CSc2nc(=O)c3c(n2C)NC(=O)CC3c2cc(F)cc(F)c2)c1 (stereo unspecified) -24.5%
CC(C)OCCCNC(=O)c1ccc(Cn2c(=O)c3cccn3c3cccnc32)cc1 -2.34%
COc1ccc(-c2[nH]ncc2C(=O)NCc2cccc(OC)c2)cc1 -26.6%
COc1cccc(CNCc2cccn2-c2nnc(N3CCN(c4ccccc4)CC3)s2)c1 -25.4%
CCOc1cccc2cc(-c3cn4c(n3)sc3ccccc34)c(=O)oc12 1.68%
O=C(CCn1c(=O)c2sccc2n(CC(=O)Nc2ccccc2)c1=O)NCc1ccccc1Cl -8.73%
Cc1ccsc1CN(C(=O)COc1ccc(Cl)cc1)C1CCS(=O)(=O)C1 (stereo unspecified) -17.8%
CCn1c(=O)cc(SCC(=O)NCc2ccc(Cl)cc2)c2ccccc21 -19.8%
CCOC(=O)[C@H](CCc1ccccc1)N[C@@H](C)C(=O)N1CCC[C@H]1C(=O)O 7.83%
CC1CCN(S(=O)(=O)c2ccc3c(ccc(=O)n3CC(=O)NCc3ccccc3Cl)c2)CC1 -3.64%
CCCCCOc1ccc(C2SC(=O)NC2=O)cc1OCC (stereo unspecified) 21.1%
CCN(C(=O)CCNC(=O)Cn1cnc2ccccc2c1=O)c1cc(OC)ccc1OC -6.18%
COc1ccc(NC(=O)CSC2=Nc3ccccc3N=C(c3ccc(F)cc3)C2)cc1OC -23.5%
Cc1ccc2c(c1)c1c(c(=O)n(-c3ccccc3C)c(=O)n1CC(=O)c1ccc(Cl)cc1)n2C -12.6%
O=S(=O)(c1ccc(Cl)cc1)c1nnn2c1nc(NC1CCCCC1)c1sccc12 -2.13%
CCC1CN(C(=O)N2CCC(C(=O)NCc3cc(OC)c(OC)c(OC)c3)CC2)c2ccccc2O1 (stereo unspecified) -9.99%
CN(C)c1ccc(NC(=O)Cn2nnc3sc4c(c3c2=O)CCC(C(C)(C)C)C4)cc1 (stereo unspecified) 1.74%
O=C(Nc1ccc(O)c(-c2nc3ccccc3o2)c1)c1ccc(Br)cc1 -24.5% [at 11.5 µM]
CN(C)c1cccc(C(=O)Nc2nc3ccc(S(=O)(=O)N4CCCC4)cc3s2)c1 -32%
CCSc1ncc(Cl)c(C(=O)Nc2nc3ccc(Cl)cc3s2)n1 -5.89%
CN(C)c1ccc(CNC(=O)CN2C(=O)CSc3ccc(S(=O)(=O)N4CCCC4)cc32)cc1 -2.77%
Cc1cccc(NC(=O)c2oc3ccccc3c2NC(=O)c2cc(=O)c3ccc(C)cc3o2)c1 0%
COc1ccnc2[nH]cc(C(=O)C(=O)N3CCN(C(=O)c4ccccc4)C[C@@H]3C)c12 8.06%
Cc1ccc(-n2c(=O)c3c(cnn3C)n(Cc3ccc(Cl)cc3)c2=O)cc1 -13.9%
CCOc1ccc(CNC(=O)c2ccc3[nH]c(C)c(C)c3c2)cc1OC -5.91%
CCc1ccc(NC(=O)N(Cc2c[nH]c3ccccc23)C2CCCCC2)cc1 46.4%
CCOc1cc(C(=O)Nc2ccc(NC(=O)c3cc4ccccc4o3)c(OC)c2)cc(OCC)c1OCC -19.5%
Cc1nc2ccc(CN(C)c3ccc(C(=O)N[C@@H](CCC(=O)O)C(=O)O)s3)cc2c(=O)[nH]1 -13.3%
Cc1ccc(NC(=O)Nc2c[nH]c(=O)[nH]c2=O)c(Cl)c1 7.77%
CCc1ccccc1NC(=O)CSc1nnc(-c2ccc(OC)cc2)s1 4.19%
CC(=O)Nc1ccc(NC(=O)C2CCN(S(=O)(=O)c3ccc4c(c3)CCCC(=O)N4)CC2)cc1 -2.35%
Cc1cc2c(cc3c(SCc4ccc(Cl)cc4)nncn32)o1 -14.7%
COc1ccc(C)cc1NC(=O)c1cnc2ccc(C)cn2c1=O -13.6%
O=c1c2ccccc2n(Cc2c(F)cccc2Cl)c(=O)n1CCc1ccccc1 -6.79%
Cc1ccn2c(=O)cc(COc3ccc(NC(=O)COc4ccc(C)c(C)c4)cc3)nc2c1 -4.48%
Cc1ccc(OCC(=O)NCC(c2ccc(Cl)cc2)N2CCOCC2)cc1C (stereo unspecified) -28.3%
CCOc1cc(C2c3c(oc4ccccc4c3=O)C(=O)N2Cc2ccc(OC)cc2)ccc1O (stereo unspecified) 3.94%

— PubChem BioAssay AID1508623 (National Center for Advancing Translational Sciences (NCATS), 2021)
